The text below walks through data of patent US12187772 (Regeneron, dated 2025).

For the assay, the target named is T1, IL10 receptor (IL10 receptor subunit alpha IL10Ra and beta subunit IL10Rb) on Ramos/STAT3-Luc and … (UniProt Q13651 22-578; Q08334 20-325, limits assumed).
T1 sequence (looked up) 1: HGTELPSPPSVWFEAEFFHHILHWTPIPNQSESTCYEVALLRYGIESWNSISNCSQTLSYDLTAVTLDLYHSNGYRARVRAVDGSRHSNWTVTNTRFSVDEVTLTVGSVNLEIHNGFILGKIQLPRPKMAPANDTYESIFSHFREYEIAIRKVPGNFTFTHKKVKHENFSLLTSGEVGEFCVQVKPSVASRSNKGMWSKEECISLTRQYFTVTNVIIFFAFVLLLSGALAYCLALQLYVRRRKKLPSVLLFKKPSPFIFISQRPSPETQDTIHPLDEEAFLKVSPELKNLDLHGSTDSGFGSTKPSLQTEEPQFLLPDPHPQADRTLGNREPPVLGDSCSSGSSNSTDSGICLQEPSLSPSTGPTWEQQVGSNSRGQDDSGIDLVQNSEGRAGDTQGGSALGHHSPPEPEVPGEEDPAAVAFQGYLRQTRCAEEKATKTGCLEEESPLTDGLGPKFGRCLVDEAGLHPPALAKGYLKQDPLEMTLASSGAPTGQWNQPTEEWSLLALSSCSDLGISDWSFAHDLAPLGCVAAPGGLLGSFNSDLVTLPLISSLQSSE
T1 sequence (looked up) 2: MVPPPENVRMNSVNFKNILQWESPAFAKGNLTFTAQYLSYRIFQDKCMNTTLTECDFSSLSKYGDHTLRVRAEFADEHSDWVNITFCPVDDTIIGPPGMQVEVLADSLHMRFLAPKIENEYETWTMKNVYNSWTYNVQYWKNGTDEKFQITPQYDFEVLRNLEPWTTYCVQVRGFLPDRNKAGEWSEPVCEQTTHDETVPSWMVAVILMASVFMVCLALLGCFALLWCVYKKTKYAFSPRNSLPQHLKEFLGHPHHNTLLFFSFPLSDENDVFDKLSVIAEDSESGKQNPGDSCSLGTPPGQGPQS
Kind of assay: cell-based or functional assay.

B1: IL10M9 (hIL10-1XG4S-Fc; Fc is an IgG1 with D265A, N297A mutations) (Fc fusion)
chain: SPGQGTQSENSCTHFPGNLPNMLRDLRDAFSRVKTFFQMKDQLDNLLLKESLLEDFKGYLGCQALSEMIQFYLEEVMPQAENQDPDIKAHVNSLGENLKTLRLRLRRCHRFLPCENKSKAVEQVKNAFNKLQEKGIYKAMSEFDIFINYIEAYMTMKIRNGGGGS[gap - human IgG1 Fc with D265A N297A (EU numbers)]
Turning to B1, the “EC50 of luciferase activity, Ramos/Stat3-Luc reporter cells” value turned out to be 0.145 nM; the “EC50 of luciferase activity, TF-1/Stat3-Luc reporter cells” value came to 0.7 nM; the “Fold Induction of luciferase activity, Ramos/Stat3-Luc reporter cells” value came out at 2.77 fold; the “Fold Induction of luciferase activity, TF-1/Stat3-Luc reporter cells” value was found to be 2.55 fold.

B2: IL10M10 (hIL10-Fc; Fc is an IgG1 with D265A, N297A mutations) (Fc fusion)
chain: SPGQGTQSENSCTHFPGNLPNMLRDLRDAFSRVKTFFQMKDQLDNLLLKESLLEDFKGYLGCQALSEMIQFYLEEVMPQAENQDPDIKAHVNSLGENLKTLRLRLRRCHRFLPCENKSKAVEQVKNAFNKLQEKGIYKAMSEFDIFINYIEAYMTMKIRN[gap - human IgG1 Fc with D265A N297A (EU numbers)]
In the case of B2, the “EC50 of luciferase activity, Ramos/Stat3-Luc reporter cells” value stood at 0.138 nM; the “EC50 of luciferase activity, TF-1/Stat3-Luc reporter cells” value stood at 0.503 nM; the “Fold Induction of luciferase activity, Ramos/Stat3-Luc reporter cells” value came to 2.09 fold; the “Fold Induction of luciferase activity, TF-1/Stat3-Luc reporter cells” value stood at 2.16 fold.
